# Source: PubChem BioAssay AID463173 (ICCB-Longwood Screening Facility, Harvard Medical School, 2010)
# About 1,700 (3.3%) of roughly 52,000 compounds were called active. Rule as the data show it: active = survival mostly below about 52% (no sharp cut-off); inactive = mostly above about 56%. This is one part of the list.
# Tested on: Wild type
# Assay: growth inhibition of S. aureus wild type versus tarO mutant, primary screen, teichoic acid synthesis inhibitors, RN4220, OD600 (AID 463173)
# Conditions: S. aureus RN4220 wild type/DeltatarO growth, OD600, 18 h, hits give low values, screened at 18.75 µg/mL (by protocol)
row,Compound,survival
1,COc1ccc(NC(=O)C2=C(C)Nc3nc(SCc4ccc(Cl)cc4)nn3C2c2cccc(OC)c2OC)cc1 (stereo unspecified),inactive: 60%
2,CCCCOC(=O)c1ccc(NC(=O)c2sc3nc(C)cc(C)c3c2N)cc1,inactive: 79%
3,O=C(Cn1c(=O)nc(-c2ccccc2)c2ccccc21)Nc1ccc(Cl)cc1F,inactive: 59%
4,c1ccc(-c2cc3n(c2)CCc2ccccc2-3)cc1,inactive: 106%
5,COC(=O)Cc1c(C)c2ccc3c(c2oc1=O)CN(Cc1ccccc1Cl)CO3,inactive: 86%
6,CCOc1ccc(-c2c(C)nn3c(C)c(C(=O)NCCc4ccc(C)cc4)cnc23)cc1OCC,inactive: 98%
7,CCc1c(C)sc2c1CCN(Cc1ccccc1F)C2c1ccccc1 (stereo unspecified),inactive: 66%
8,Cc1nc2cccnc2n1C1CCN(C(=O)Nc2ccc(Cl)cc2)CC1,inactive: 68%
9,O=C(NCCSc1c[nH]c2ccccc12)c1ccccc1Cl,inactive: 66%
10,COc1ccc(NC(=O)C2CCN(S(=O)(=O)c3c(C)noc3/C=C/c3cccs3)CC2)cc1Cl,inactive: 85%
11,COCCNC(=O)c1ccccc1NC(=O)c1nsc2ccccc12,inactive: 73%
12,CNC(=O)CN1C(=O)COc2ccc(S(=O)(=O)N3CCC(C)CC3)cc21,inactive: 88%
13,COC(=O)c1ccc(CSC(=N)N)o1,inactive: 101%
14,CCSc1nnc(CNc2ccc(F)cc2)n1-c1ccc(C)cc1,inactive: 110%
15,COC(=O)Cn1c(SCCOc2ccccc2OC)nc2ccccc21,inactive: 91%
16,Cc1cc2[nH]c(=O)c(=O)[nH]c2cc1S(=O)(=O)N1CCN(c2cccc(Cl)c2)CC1,inactive: 88%
17,COc1ccc2[nH]cc(CCN=C(NC(=O)c3ccccc3OC)Nc3nc(C)cc(C)n3)c2c1,inactive: 94%
18,CCc1cc2c(cc3c(=O)n(CC(=O)NCCc4ccc(OC)cc4OC)nc(CC)n32)s1,inactive: 84%
19,O=S(=O)(NC1CCCCC1)c1ccc(S(=O)(=O)N2CCN3CCCC3C2)cc1 (stereo unspecified),inactive: 86%
20,COc1cccc(Cn2cc(C(=O)c3ccc(Cl)cc3)c(=O)c3ccccc32)c1,inactive: 76%
21,Cc1ccc(NC(=O)c2ccc(NC(=O)CCS(=O)(=O)c3cccs3)cc2)cc1F,inactive: 74%
22,CCSc1ncc(Cl)c(C(=O)Nc2cccc(Cl)c2)n1,inactive: 84%

row,Compound,survival
1,Cc1ccccc1Nc1c(-c2ccc(N3CCOCC3)cc2)nc2ccc(Br)cn12,inactive: 88%
2,N#C/C(=C\c1ccc(-c2ccc(Br)cc2)o1)C(=O)OC1CCCCC1,inactive: 103%
3,Cc1ccc2c(=O)cc(C(=O)Nc3c(C)n(C)n(-c4ccccc4)c3=O)oc2c1,inactive: 82%
4,CCOC(=O)C1(C)C=C(Nc2cccc(C(=O)O)c2)C(=O)N1c1ccccc1 (stereo unspecified),inactive: 91%
5,Cc1ccc(CNC(=O)C(=O)NCC(c2ccc3c(c2)OCO3)N2CCOCC2)cc1 (stereo unspecified),inactive: 75%
6,Cc1ccc(Nc2ncnc3sc4c(c23)CCC(C)C4)cc1C (stereo unspecified),inactive: 64%
7,COc1cc(NC(=O)CSc2nc3nc(C)c(Cc4ccccc4Cl)c(C)n3n2)cc(OC)c1,inactive: 75%
8,COc1ccccc1N1CCN(C(=O)C2CCCN(S(=O)(=O)c3ccc4c(c3)CCCN4C(C)=O)C2)CC1 (stereo unspecified),inactive: 69%
9,Cn1nc(CC(=O)Nc2ccc(N3CCN(C(=O)OC(C)(C)C)CC3)cc2)c2ccccc2c1=O,inactive: 103%
10,COc1cc(Cl)c(C)cc1NC(=O)c1cnc(N2CCCCC2)c2ccccc12,inactive: 115%
11,CCCOc1ccc(CNC(=O)C(NS(=O)(=O)c2cccs2)C(C)C)cc1 (stereo unspecified),inactive: 68%
12,CC(C)Cn1c(-c2cccc(Br)c2)nc2ccccc21,active: 27%
13,COC(=O)C(CCSC)Nc1ncnc2onc(-c3ccc(F)cc3)c12 (stereo unspecified),inactive: 74%
14,COc1cc2nc(SCc3ccc(C)cc3)n3nc(CCn4nc(C)cc4C)nc3c2cc1OC,inactive: 73%
15,CCOc1ccccc1NC(=O)C(=O)Nc1ccc2nc3n(c(=O)c2c1)CCCCC3,inactive: 75%
16,CC(C)NS(=O)(=O)c1ccc(CCC(=O)Nc2ccc3c(c2)OCCO3)cc1,inactive: 110%
17,Cc1cc(C)cc(NC(=O)C(Cc2ccccc2)NS(=O)(=O)c2ccc3c(c2)CCC(=O)N3)c1 (stereo unspecified),inactive: 82%
18,OCc1cnc(SCc2ccccc2F)n1Cc1ccc(F)cc1,inactive: 76%
19,Nc1n[nH]c2c1C1(CCCC1)Cc1ccccc1-2,inactive: 137%
20,Cc1cc(C)cc(NC(=O)Cc2noc3ccccc23)c1,inactive: 90%
21,O=C(c1ccccc1)N1c2nc(-c3ccco3)nn2C2(CCCCC2)[C@@H]2CCCC[C@@H]21,inactive: 84%
22,Cc1ccccc1OCc1ccc(-c2nc(C#N)c(N3CCN(c4cccc(Cl)c4)CC3)o2)o1,inactive: 96%

row,Compound,survival
1,Cc1cc(C)c(NC(=O)C2CCCN(S(=O)(=O)c3c(C)noc3C)C2)c(C)c1 (stereo unspecified),inactive: 73%
2,Cc1cc(C)c(S(=O)(=O)Nc2nnc(C(F)(F)F)s2)c(C)c1,inactive: 86%
3,CCCCCCOc1ccc(C2C(=O)N(C3CCCCC3)CC(=O)N2C2CCCCC2)cc1 (stereo unspecified),inactive: 69%
4,O=c1[nH]c2cc3c(cc2cc1CN(Cc1ccc2c(c1)OCO2)S(=O)(=O)c1ccc(F)cc1)OCO3,inactive: 102%
5,CCC(=O)N1CCc2cc(S(=O)(=O)NCCC(=O)Nc3ccc(N(CC)CC)cc3C)ccc21,inactive: 76%
6,CCN(CC)S(=O)(=O)c1ccc(C(=O)NCCSc2c(-c3ccccc3)[nH]c3ccccc23)cc1,inactive: 100%
7,Cc1ccc2cccc(NC(=S)NC(=O)c3ccn(C)n3)c2n1,inactive: 104%
8,O=C(c1ccc2c(c1)N(Cc1ccc(F)cc1)C(=O)c1ccccc1S2(=O)=O)N1CCCCC1,inactive: 122%
9,COc1cc(NC(=O)CSc2c3c(nc4ccccc24)CCC3)cc(OC)c1OC,inactive: 74%
10,NC(=O)c1cc(S(=O)(=O)N2CCN(c3cccc(C(F)(F)F)c3)CC2)cs1,inactive: 91%
11,O=C(CSc1nc(-c2cccc(F)c2)[nH]c1-c1ccccc1)Nc1ccc2c(c1)OCO2,inactive: 43%
12,O=C(CSc1nc2ccccc2nc1Cc1ccc(Cl)cc1)N1CCN(c2ccccc2)CC1,inactive: 77%
13,CC1CCCCN1S(=O)(=O)c1ccc(S(=O)(=O)NCc2ccc3c(c2)OCO3)cc1 (stereo unspecified),inactive: 108%
14,CCOC(=O)C1(Cc2ccc(O)cc2)NC(c2ccccc2F)C2C(=O)N(C)C(=O)C21 (stereo unspecified),inactive: 114%
15,COc1cc(NC(=O)c2cc3cc4ccc(C)cc4nc3o2)cc(OC)c1OC,inactive: 87%
16,CCc1ccccc1N(C)C(=O)C1CCCN(c2ncnc3c2nc2n3CCCCC2)C1 (stereo unspecified),inactive: 75%
17,Cc1ccc(-n2ncc(C(=O)NCc3ccco3)c2C2CCN(C(=O)OC(C)(C)C)CC2)cc1C,inactive: 72%
18,Cc1c(C(=O)Nc2cc(F)ccc2F)sc2nc(-c3ccc(F)cc3)cn12,inactive: 136%
19,CCc1c(C)c2cc3c(c(C)c2oc1=O)OCN(CCc1ccccc1F)C3,inactive: 110%
20,CCCCN(C(=O)C1CCC(CNS(=O)(=O)c2cccc3nsnc23)CC1)c1ccccc1 (stereo unspecified),inactive: 72%
21,CCOC(=O)c1c(NC(=O)c2ccc(OCC)c(Br)c2)sc2c1CCCC2,inactive: 67%
22,Cc1cc2oc(=O)c(CC(=O)NCCc3ccccc3F)c(C)c2c2occ(C(C)(C)C)c12,inactive: 103%

row,Compound,survival
1,CC(=O)Nc1cc(C(=O)NCc2ccc(F)cc2)ccc1Sc1ccc(F)cc1,inactive: 71%
2,Cc1ccc(C)c(S(=O)(=O)c2nnn3c2nc(N2CCN(C)CC2)c2sccc23)c1,inactive: 103%
3,COc1ccc(CC(=O)NCC(c2cccs2)S(=O)(=O)c2ccc(F)c(C)c2)cc1 (stereo unspecified),inactive: 119%
4,Cc1ccc(S(=O)(=O)Nc2nnc(CC(C)(C)C)s2)cc1,inactive: 107%
5,CC(=O)Nc1ccc(NC(=O)CN(C)S(=O)(=O)c2ccc3c(c2)CCCC(=O)N3)cc1,inactive: 56%
6,O=c1c2cc3c(cc2nc2sc(Nc4cccc([N+](=O)[O-])c4)nn12)OCO3,inactive: 124%
7,Cc1ccccc1CSc1ncc(Cl)c(C(=O)Nc2nc3ccc(F)cc3s2)n1,inactive: 115%
8,COc1ccccc1C(=O)N/C(=C\c1cn(S(=O)(=O)N(C)C)c2ccccc12)C(=O)NCCCn1ccnc1,inactive: 101%
9,CCc1ccc(CNC(=O)C2CCCN(c3nnc(C)c4c(C)n(-c5ccccc5)nc34)C2)cc1 (stereo unspecified),inactive: 73%
10,Cc1cccc(CN2CCC(CNC(=O)Cn3ncc4c([nH]c5ccc(C)cc54)c3=O)CC2)c1,inactive: 129%
11,COc1ccccc1C(=O)Nc1nc2n(n1)C(c1ccc(F)cc1)C=C(c1ccc(Cl)cc1)N2 (stereo unspecified),inactive: 46%
12,CCOC(=O)c1cc(S(=O)(=O)NCc2ccc(Cl)cc2)[nH]n1,inactive: 76%
13,COc1ccccc1NC(=O)C1=C(C)Nc2nc(SC)nn2C1c1ccccc1Cl (stereo unspecified),inactive: 78%
14,Cc1cc2n(n1)CCC(=O)N2Cc1ccc(C(=O)Nc2cc(Cl)ccc2C)cc1,inactive: 77%
15,COc1ccccc1C(=O)Nc1ccc2nc(SCC(=O)N3CCCc4ccccc43)sc2c1,inactive: 92%
16,COc1ccc(OC)c(NC(=O)C2CCCN(S(=O)(=O)c3ccc4c(c3)CCCC(=O)N4)C2)c1 (stereo unspecified),inactive: 99%
17,COc1ccc(NC(=O)c2ccco2)cc1NC(=O)c1cc(Cl)ccc1OC,inactive: 65%
18,O=S1(=O)c2ccccc2N(Cc2cccc(F)c2)c2ccccc21,inactive: 65%
19,COc1cccc(-c2cc(C(F)(F)F)nc(NCCc3ccc(OC)c(OC)c3)n2)c1,inactive: 25%
20,CCCN(CCC)C(=O)Cn1c(=O)n(-c2cccc(C)c2)c(=O)c2c1c1cc(OC)ccc1n2C,inactive: 72%
